Laboratory results as given in patent publication US20230365640A1 (ACADEMIA SINICA, published 2023).
Several values for one entry are separate records, joined by “and”; a condition that tells them apart may be missing. Equal values may be shown once.

Target: recombinant SARS-CoV-2 RBD (His-tagged SARS-CoV-2 RBD fusion protein) (SARS-CoV-2)

B1: CLEC2.Fc protein (Fc fusion)
chain: not shown
Kd: 7.92 µM and 7.48 µM
koff: 0.000574 s⁻¹ and 0.000849 s⁻¹
